Experimental data published in patent publication US10100129B2, “Antibodies against CD73 and uses thereof” (BRISTOL-MYERS SQUIBB COMPANY, priority 2014, dated 2018).

Experiments:
[1] = target: T1, N-hCD73-his (hCD73(26-336)His) (Homo sapiens, UniProt P21589); experiment: SPR (Biacore T100) kinetics of CD73 mAbs binding to N-hCD73-his; settings: antibody captured on protein A, N-hCD73-his analyte, 25 C
T1 construct: consisting of residues 26-336 of human CD73; termed N-hCD73; His (C); made in house; host or cells: HEK-293 E cells (transient transfection)
T1 sequence (P21589 26-336): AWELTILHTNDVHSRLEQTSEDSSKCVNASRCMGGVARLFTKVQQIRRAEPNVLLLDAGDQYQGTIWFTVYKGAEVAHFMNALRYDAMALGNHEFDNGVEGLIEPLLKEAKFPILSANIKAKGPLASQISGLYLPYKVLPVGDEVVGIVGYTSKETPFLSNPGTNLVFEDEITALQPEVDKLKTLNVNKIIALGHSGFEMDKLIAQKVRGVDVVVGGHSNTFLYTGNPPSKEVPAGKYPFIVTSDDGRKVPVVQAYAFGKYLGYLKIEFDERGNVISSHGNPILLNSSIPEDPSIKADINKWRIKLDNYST
Description: One experimental format tested the binding of the N-terminal domain of hCD73 (consisting of residues 26-336 of human CD73; termed N-hCD73) to antibodies that were captured on immobilized protein A surfaces. For these experiments, protein A (Pierce) was immobilized to a density of 3000-4000 RU on flow cells 1-4 of a CM5 sensor chip (GE Healthcare) using standard ethyl(dimethylaminopropyl) carbodiimide (EDC)/N-hydroxysuccinimide (NHS) chemistry, with ethanolamine blocking, in a running buffer of 0.01 M HEPES pH 7.4, 0.15 M NaCl, 3 mM EDTA, 0.005% v/v tween 20. Kinetic experiments were performed by first capturing antibodies (5-10 ug/ml) on the protein A surfaces using a 30 s contact time at 10 ul/min, with binding of 600, 200, 66.7, 22.2, 7.4, and 2.5 nM N-hCD73-his, using a 180 s association time and 360 s dissociation time at a flow rate of 30 ul/min. The running buffer for the kinetic experiments was 10 mM sodium phosphate, 130 mM sodium chloride, 0.05% tween 20, pH 7.1. The surfaces were regenerated after each cycle using two 30 s pulses of 10 mM glycine pH 1.5 at a flow rate of 30 μl/min. Sensogram data was double-referenced and then fitted to a 1:1 Langmuir model using Biacore T100 evaluation software v2.0.4, to determine the association rate constant (ka), the dissociation rate constant (kd), and the equilibrium dissociation constant (KD). […]

[2] = SEC-MALS oligomeric state of CD73 mAbs; assay type: physicochemical
Protocol: The oligomeric state of CD73 mAbs were examined by size-exclusion chromatography coupled to an in-line multi-angle light scattering detector (SEC-MALS). Isocratic separations were performed on a Shodex PROTEIN KW-803 column connected to an Prominence Shimadzu UFLC in buffer containing 200 mM K2HPO4, 150 mM NaCl, pH 6.8, containing 0.02% Na azide (0.1 μm filtered) running at 0.5 mL/min. Samples were injected onto the column using a SIL-20AC Prominence Shimadzu autosampler, and data were obtained from three online detectors connected in series: a Prominence SPD-20AD diode array UV/vis spectrophotometer followed by a Wyatt miniDAWN™ TREOS Multi-Angle Light Scattering Detector then a Wyatt Optilab T-rEX Refractive Index Detector. Data (as shown in Table 15 below) were collected and analyzed using Astra (Wyatt) and Labsolutions (Shimadzu) software.

CD73 on human cell lines = target: T2, CD73 on human cell lines (Homo sapiens, UniProt P21589); experiment: Kinetic internalization studies (high-content imaging); assay type: cell-based
T2 construct: Calu6 (CD73 endogenous expressors; human pulmonary adenocarcinoma cell line); endogenous in cells; host or cells: Calu6, NCI-H292, SK-MEL-24, SNU-C1, NCI-H1437, H2228, HCC15, H2030 and further human tumour lines
T2 sequence (P21589 27-549): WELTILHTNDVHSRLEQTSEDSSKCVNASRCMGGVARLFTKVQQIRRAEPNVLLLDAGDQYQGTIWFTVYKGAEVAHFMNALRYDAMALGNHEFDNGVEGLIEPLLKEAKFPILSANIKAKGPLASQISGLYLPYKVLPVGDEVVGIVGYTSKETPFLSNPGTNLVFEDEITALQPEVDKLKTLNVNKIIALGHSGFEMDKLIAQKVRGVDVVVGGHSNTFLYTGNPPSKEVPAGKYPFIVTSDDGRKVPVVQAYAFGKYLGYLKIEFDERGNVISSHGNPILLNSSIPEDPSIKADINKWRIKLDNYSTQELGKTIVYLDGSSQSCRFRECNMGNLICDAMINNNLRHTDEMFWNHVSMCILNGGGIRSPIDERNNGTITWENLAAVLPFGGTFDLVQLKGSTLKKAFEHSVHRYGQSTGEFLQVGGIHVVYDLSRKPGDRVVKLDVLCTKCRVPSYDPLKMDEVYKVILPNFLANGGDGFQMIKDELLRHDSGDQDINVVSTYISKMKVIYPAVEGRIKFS
Protocol: Kinetic internalization studies were performed to assess the rate of internalization. Cells (2,000 cells/well) in 20 μl of complete medium (Gibco RPMI Media 1640 with 10% heat inactivated fetal bovine serum) were plated in 384 BD Falcon plate and grown overnight at 37° C. 5% CO2 and 95% humidity. CD73 antibodies were diluted with PBS buffer containing 0.2% BSA to 10 μg/ml and added 5 μl/well into the cell plate. The cells were incubated with antibodies for a 0-2 hour time course at 37° C., followed by washing once with PBS buffer. The cells were subsequently fixed with formaldehyde (final 4% in PBS) at room temperature for 10 minutes, and then washed once with 30 ul PBS. […] The plate was incubated at 4° C. for overnight. On the next day, after 3 washes in PBS buffer, Secondary antibody Alexa488-goat anti human with DAPI were added. The cells were stained for 60 minutes at room temperature, after 3 washes, images were acquired using Arrayscan Vti (Cellomics, Pittsburgh, Pa.).

- kd [1]: 0.006 s⁻¹
- internalization (in words) (CD73 on human cell lines): did not internalize significantly
B1: 5F8: human anti-CD73 monoclonal antibody, IgG1za; VH SEQ ID NO: 68; predominant light chain VK1 (antibody)
heavy: EVQLVESGGGLVQPGGSLRLSCAASGFTFSSYWMHWVRQAPGKGLVWVSRIISDGSSTGYADSVKGRFTISRDNAKNTLYLQMNSLRAEDTAVYYCAREFSSGWYFDYWGQGTLVTVSS[sequence of human IgG1 constant region omitted]
light: AIQLTQSPSSLSASVGDRVTITCRASQGISSALAWYQQKPGKAPKLLIYDASSLESGVPSRFSGSGSGTDFTLTISSLQPEDFATYYCQQFSSYPRTFGQGTKVEIKRTVAAPSVFIFPPSDEQLKSGTASVVCLLNNFYPREAKVQWKVDNALQSGNSQESVTEQDSKDSTYSLSSTLTLSKADYEKHKVYACEVTHQGLSSPVTKSFNRGEC
modifications: Synthetic: 5F8 (full length heavy chain); Synthetic: 5F8 (full length light chain 1)
notes: human anti-CD73 monoclonal antibody, IgG1za; predominant light chain VK1
- SEC % HMW [2]: 2.3%
- SEC % LMW [2]: 0.0%
- SEC % Monomer [2]: 97.7%
